# Article PMC12135187, “A role for pH dynamics regulating transcription factor DNA-binding selectivity”
# Some of the results follow.
# Target: T1, FOXC2 DBD WT (UniProt Q99958 72-172)
# T1 sequence: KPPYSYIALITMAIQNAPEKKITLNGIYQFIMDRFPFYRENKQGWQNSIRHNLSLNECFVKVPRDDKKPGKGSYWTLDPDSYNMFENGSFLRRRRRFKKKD
# Experiment: SELEX-seq (GST pull-down, four rounds, 16-nt random library); pH 7.0; 20 mM HEPES, 140 mM KCl, 0.05 mM TCEP-HCl, pH 7.0, room temperature, 30 min; 2.5 uM GST-FOXC2 DBD, 0.25 uM DNA library; high values mean tight binding
# Details: protein: recombinant; tags: N-terminal GST (pGEX-6P-2); dsDNA, one strand shown
# How it was run: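 GST-tagged FOXC2 DNA-binding domain (E. coli-expressed, glutathione-purified) was incubated with a DNA library carrying a 16 bp randomized region, at 0.25 μM DNA and 2.5 μM protein, for 30 min at RT in 20 mM HEPES, 140 mM KCl, 0.05 mM TCEP–HCl, pH 7. Complexes were captured on glutathione Sepharose beads, washed, heat-eluted and PCR-amplified over four rounds. Initial and selected libraries were Illumina MiniSeq sequenced. Relative enrichment came from the Bioconductor SELEX R package.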
row,Sequence,binding signal [relative enrichment]
1,GAACAA,0.355
2,ATACGA,0.49
3,CAACTA,0.363
4,ATTCCT,0.377
5,AATAGT,0.409
6,TCATCT,0.546
7,TGCCAA,0.263
8,ACTGTA,0.394
9,ACATGG,0.511
10,AACTAC,0.312
11,CAACAG,0.249
12,TTTCGC,0.396
13,ATCAAT,0.463
14,TGTACA,0.376
15,TCATCA,0.526
16,CAGTTC,0.412
17,ATCAAC,0.291
18,AACCAC,0.351
19,AAGACA,0.365
20,CATATG,0.262
21,TAAAGA,0.341
22,CACTCT,0.501
23,AGTATC,0.447
24,ATATCG,0.288
25,AGAATA,0.372

row,Sequence,binding signal [relative enrichment]
1,CATCAG,0.595
2,AACTCG,0.415
3,CAATCC,0.386
4,ATACGC,0.457
5,TCTCAA,0.295
6,AATTTG,0.278
7,TCTAGT,0.535
8,AGCACT,0.486
9,CCCTTA,0.461
10,ATCTTC,0.665
11,CAAGCC,0.418
12,CGTTTA,0.415
13,AATAAC,0.481
14,CTCCTA,0.467
15,GTTGTA,0.31
16,ACTGTC,0.296
17,CATTCC,0.643
18,ACGCTA,0.34
19,TACTGC,0.493
20,ACCTTG,0.346
21,CTTTCT,0.471
22,GATCAT,0.546
23,CAAGTG,0.357
24,ATTTGA,0.433
25,TTAAAA,0.212

row,Sequence,binding signal [relative enrichment]
1,AATGGT,0.376
2,ATTTGC,0.386
3,ATCCGT,0.404
4,AAACGT,0.254
5,CACCTC,0.731
6,TTCGCT,0.574
7,AACCCA,0.314
8,ATTAGC,0.357
9,AGCATA,0.337
10,ATTTGG,0.408
11,CATGTA,0.339
12,CTCAGT,0.598
13,TAAGCA,0.814
14,AGATAA,0.307
15,ATGCCT,0.563
16,CATGCA,0.513
17,GTCTTA,0.348
18,ACAGCG,0.295
19,CGATAA,0.42
20,ACAAAC,0.587
21,AAGCTC,0.44
22,AACCAA,0.348
23,CTACAC,0.417
24,AAATAG,0.534
25,CTCTTT,0.469

row,Sequence,binding signal [relative enrichment]
1,GATGTA,0.389
2,TTACAA,0.36
3,ATTAAA,0.406
4,ATACAC,0.394
5,CCAAGT,0.388
6,AAAGGT,0.302
7,AACACC,0.399
8,GATACA,0.366
9,TATCCA,0.362
10,ACATTC,0.499
11,TTAGCC,0.439
12,AAAGCT,0.238
13,AACCTA,0.423
14,AACATA,0.321
15,CACTTC,0.726
16,CTAATA,0.342
17,ATATTG,0.448
18,GACAAA,0.293
19,AACATT,0.298
20,ATAAAA,0.231
21,GTTTCC,0.321
22,ATACTC,0.432
23,GCAACA,0.23
